{
  "source": "PubChem BioAssay AID2675",
  "about": "(National Center for Advancing Translational Sciences (NCATS), 2010)",
  "note": "Among all 280,000 compounds or so, about 100 (0.036%) were called active. The inconclusive results got no clear call from the source; some entries with a clear call stand among them for comparison. Calls come from the whole dose curve; as a rule, active = well fitted inhibition curve with a large enough effect in the signal ratio, with a control signal flat (not every such curve was filed as active); inconclusive = small, poorly fitted or top-dose-only effect, or effect the other way, or a change in a side signal; inactive = no such curve, though single readings can be large or run the other way; the % refers to the signal ratio. A potency beside an inconclusive call is a rough fit, not a confirmed value. A note “side channel” means that the fit belongs to a control or component signal, not to the main read-out. Potency is the fitted concentration of half-maximal effect; tags give direction and shape of the fitted curve or compound fluorescence and quenching.",
  "data": [
    {"molecular_target": "Muscleblind-like protein 1 (Homo sapiens) (UniProt Q9NR56)", "sequence (Q9NR56 whole entry, looked up)": "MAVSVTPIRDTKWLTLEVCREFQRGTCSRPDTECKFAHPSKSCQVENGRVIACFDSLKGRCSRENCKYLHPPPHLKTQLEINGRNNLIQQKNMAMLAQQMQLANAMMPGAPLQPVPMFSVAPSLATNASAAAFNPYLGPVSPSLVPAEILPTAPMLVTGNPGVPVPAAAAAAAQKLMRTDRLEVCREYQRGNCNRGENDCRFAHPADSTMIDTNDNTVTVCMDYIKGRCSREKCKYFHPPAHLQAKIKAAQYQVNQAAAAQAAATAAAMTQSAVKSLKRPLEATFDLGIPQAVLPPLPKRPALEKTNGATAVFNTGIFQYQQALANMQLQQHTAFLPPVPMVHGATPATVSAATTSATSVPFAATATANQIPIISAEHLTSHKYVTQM", "test": "qHTS Assay for Inhibitors of MBNL1-poly(CUG) RNA binding", "settings": "TR-FRET MBNL1-His/biotin-(CUG)12 binding, 665/545 ratio; series mostly up to 57.5 µM", "procedure,_shortened": "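TR-FRET readout: Ex 340 nm, 665/545 nm emission ratio, normalized to buffer-only (basal) and MBNL1-(CUG)12 controls. Complex of MBNL1-His with Biotin-(CUG)12, compounds 92 nM–58 uM, incubated 60 min at room temperature.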", "values": [
      {"compound": "O=C(CCNS(=O)(=O)c1cccc2nsnc12)NCCc1ccccc1", "Potency": "inconclusive: 15.8 µM [quencher, side channel, partial curve]"},
      {"compound": "OCCCn1c(-c2ccccc2)nc(=S)c2c1CCCC2", "Potency": "inactive"},
      {"compound": "O=C(COc1cccnc1[N+](=O)[O-])N1CCN(S(=O)(=O)c2ccc3ccccc3c2)CC1", "Potency": "inconclusive: 0.794 µM [quencher, side channel, full curve]"},
      {"compound": "CCNc1nc(C23CC4CC(CC(C4)C2)C3)cs1", "Potency": "inactive"},
      {"compound": "CC[n+]1cc(-c2ccccc2)nc(N2CCOCC2)n1", "Potency": "inconclusive: 15.8 µM [quencher, side channel, partial curve]"},
      {"compound": "CCN1CCN(CC(=O)N/N=C/c2cc(Br)cs2)CC1", "Potency": "inconclusive: 17.8 µM [quencher, side channel, partial curve]"},
      {"compound": "O=C(/N=C1\\NC(=O)C(F)(C(F)(F)F)S1)NC1CCCCC1", "note": "(configuration not stated)", "Potency": "inactive"},
      {"compound": "O=C(c1ccc([N+](=O)[O-])cc1)N(Cc1ccc(Br)cc1)N1C(=O)CCCC1=O", "Potency": "inactive"},
      {"compound": "Cc1cccc2c1NC(=O)/C2=C\\C(=O)c1cccs1", "Potency": "inactive"},
      {"compound": "CC(C)N(C(=O)CSc1nc2ccccc2n1Cc1ccccc1F)C(C)C", "Potency": "inconclusive: 3.98 µM [quencher, side channel, single point]"},
      {"compound": "Cc1cc(C)[n+]2[nH]c(N)c(N=Nc3ccccc3)c2n1", "Potency": "inconclusive: 10 µM [quencher, side channel, partial curve]"},
      {"compound": "O=S(=O)(CCc1ccncc1)Cc1ccc2c3c(cccc13)CC2", "Potency": "inconclusive: 15.8 µM [quencher, side channel, partial curve]"},
      {"compound": "O=S(=O)(CCN1CCCCC1)Oc1ccc(Cl)cc1Cl", "Potency": "inactive"},
      {"compound": "COc1ccc(-c2ccc(NS(=O)(=O)c3cccc([N+](=O)[O-])c3)cc2)nn1", "Potency": "inconclusive: 28.2 µM [quencher, side channel, partial curve]"},
      {"compound": "CN1CCN(CCCN2c3ccccc3Sc3ccc(C(F)(F)F)cc32)CC1", "Potency": "inactive"},
      {"compound": "Cc1ccc(N2C(=O)c3ccc(C(=O)NCCN4CCOCC4)cc3C2=O)cc1", "Potency": "inconclusive: 14.1 µM [quencher, side channel, partial curve]"},
      {"compound": "COc1ccc(CCNC(=O)C2CC(c3ccc([N+](=O)[O-])cc3)=NO2)cc1", "note": "(configuration not stated)", "Potency": "inconclusive: 14.1 µM [quencher, side channel, partial curve]"},
      {"compound": "CCOc1cc(/C=C2\\SC(=Nc3ccc(CC)cc3)NC2=O)ccc1OCC(=O)O", "Potency": "inconclusive: 12.6 µM [quencher, side channel, partial curve]"},
      {"compound": "O=C(Nn1cnnc1)c1cc([N+](=O)[O-])cc([N+](=O)[O-])c1", "Potency": "inconclusive: 10 µM [quencher, side channel, partial curve]"},
      {"compound": "O=C(COC(=O)/C=C/c1ccc(Cl)cc1)NCCN1C(=O)CSC1=O", "Potency": "inconclusive: 28.2 µM [quencher, side channel, single point]"},
      {"compound": "COc1ccc(CNC(=O)c2ccc(SC)cc2OC)cc1", "Potency": "inconclusive: 31.6 µM [fluorescent, side channel, single point]"},
      {"compound": "COc1ccc(NC(=O)c2ccc(NCCN3C(=O)CCC3=O)c([N+](=O)[O-])c2)cc1", "Potency": "inconclusive: 10 µM [quencher, side channel, partial curve]"},
      {"compound": "COc1ccc(S(=O)(=O)N2CCC(C(=O)N3CCCC3)CC2)cc1", "Potency": "inactive"},
      {"compound": "N#C/C(=C/c1ccc(Br)o1)C(N)=S", "Potency": "inconclusive: 14.1 µM [quencher, side channel, partial curve]"},
      {"compound": "O=[N+]([O-])c1cccc(/C=N/NC2CCS(=O)(=O)C2)c1", "note": "(configuration not stated)", "Potency": "inconclusive: 15.8 µM [quencher, side channel, partial curve]"},
      {"compound": "O=C(Cn1cnc([N+](=O)[O-])n1)N/N=C/c1ccc(O)cc1O", "Potency": "inconclusive: 15.8 µM [quencher, side channel, partial curve]"},
      {"compound": "CCOCCCNc1ccc(N2C(=O)CCCC2=O)cc1[N+](=O)[O-]", "Potency": "inconclusive: 15.8 µM [quencher, side channel, partial curve]"},
      {"compound": "Cc1nnc(NC(=O)c2ccc3ccccc3n2)s1", "Potency": "inconclusive: 15.8 µM [quencher, side channel, partial curve]"},
      {"compound": "COc1ccc(/C=C/C(=O)CCC(=O)O)cc1", "Potency": "inconclusive: 31.6 µM [quencher, side channel, single point]"},
      {"compound": "Cc1cc(C)nc(SCC(CSc2nc(C)cc(C)n2)C(=O)O)n1", "Potency": "inactive"},
      {"compound": "CC(=O)N(CN1C(=O)c2ccccc2C1=O)c1cccc(C)c1", "Potency": "inactive"},
      {"compound": "O=C1c2ccccc2NC(c2ccccc2)N1Cc1ccco1", "note": "(configuration not stated)", "Potency": "inactive"},
      {"compound": "O=C(Nc1ccc(F)cc1F)NC1CC(=O)N(Cc2ccccc2)C1", "note": "(configuration not stated)", "Potency": "inconclusive: 0.891 µM [quencher, side channel, single point]"},
      {"compound": "COc1ccc([N+](=O)[O-])cc1N(CC(O)Cn1nnc2ccccc21)S(=O)(=O)c1ccc(C)cc1", "note": "(configuration not stated)", "Potency": "inconclusive: 35.5 µM [quencher, side channel, single point]"},
      {"compound": "CNC(=O)c1cc2c(=O)n3cc(C)ccc3nc2n(C(C)C)c1=N", "Potency": "inconclusive: 10 µM [quencher, side channel, partial curve]"},
      {"compound": "CC(C)C[C@H]1CN=C(Nc2ccccc2)N1CCCC1CCCC1", "Potency": "inactive"},
      {"compound": "O=C(NCCCn1ccnc1)c1nn2c(C(F)(F)F)cc(-c3ccc(Br)cc3)nc2c1Cl", "Potency": "inconclusive: 3.16 µM [quencher, side channel, partial curve]"},
      {"compound": "CCCNc1cc(=S)nc(N)[nH]1", "Potency": "inactive"},
      {"compound": "COCCNC(=O)c1c(N)n(-c2cccc(C)c2)c2nc3ccccc3nc12", "Potency": "inconclusive: 12.6 µM [quencher, side channel, partial curve]"},
      {"compound": "O=C(NCCc1ccccc1)/C(=C\\c1ccc([N+](=O)[O-])cc1)NC(=O)c1ccco1", "Potency": "inconclusive: 3.16 µM [quencher, side channel, full curve]"},
      {"compound": "COc1ccc(NC(=S)Nc2ccc3nsnc3c2)cc1", "Potency": "inconclusive: 14.1 µM [quencher, side channel, partial curve]"},
      {"compound": "Cn1c(CNC(=O)Nc2ccccc2)nnc1SCc1ccccc1", "Potency": "inconclusive: 126 µM [inhibitor, single point]"},
      {"compound": "Cc1nnc2sc(-c3ccc(N(C)C)cc3)nn2c1=O", "Potency": "inconclusive: 7.08 µM [quencher, partial curve]"},
      {"compound": "COc1ccc(/C=C(\\NC(=O)c2cccs2)C(=O)NCc2ccco2)cc1OC", "Potency": "inconclusive: 28.2 µM [quencher, side channel, single point]"},
      {"compound": "CC(C(=O)NC1CCCC1)N(Cc1ccc2c(c1)OCO2)C(=O)c1snc(C(N)=O)c1N", "note": "(configuration not stated)", "Potency": "inconclusive: 15.8 µM [quencher, side channel, partial curve]"},
      {"compound": "O=C1C(=O)N(CCN2CCOCC2)C(c2ccc(Cl)cc2)/C1=C(/O)c1ccc(S(=O)(=O)N2CCOCC2)cc1", "note": "(configuration not stated)", "Potency": "inconclusive: 25.1 µM [quencher, side channel, partial curve]"},
      {"compound": "O=C(CN1CCN(Cc2ccccc2Cl)CC1)N/N=C/C=C\\c1ccccc1[N+](=O)[O-]", "Potency": "inconclusive: 31.6 µM [quencher, side channel, single point]"},
      {"compound": "O=C(Nc1ccccc1O)c1ccc(C(=O)c2ccccc2)o1", "Potency": "inconclusive: 6.31 µM [quencher, side channel, partial curve]"},
      {"compound": "COc1ccc(-n2c(SCCC#N)nnc2-c2cc(Cl)ccc2OC)cc1Cl", "Potency": "inconclusive: 35.5 µM [fluorescent, side channel, single point]"},
      {"compound": "c1ccc2c(c1)OCC(c1nn3c(Cn4nnc5ccccc54)nnc3s1)O2", "note": "(configuration not stated)", "Potency": "inactive"},
      {"compound": "O=C1CN(S(=O)(=O)c2ccc([N+](=O)[O-])cc2)CC(=O)N1", "Potency": "inconclusive: 12.6 µM [quencher, side channel, partial curve]"},
      {"compound": "CCN1CCN(C(=O)/C=C/c2ccc3c(c2)OCO3)CC1", "Potency": "inconclusive: 31.6 µM [quencher, side channel, single point]"},
      {"compound": "C=CCOc1nc2c(c(=O)n(C)c(=O)n2C)n1C", "Potency": "inactive"},
      {"compound": "O=C(NNS(=O)(=O)c1ccc([N+](=O)[O-])cc1)C(=O)Nc1cccc(C(=O)O)c1", "Potency": "inconclusive: 10 µM [quencher, side channel, partial curve]"},
      {"compound": "Cc1cccc(C(=O)O/N=C(\\N)c2cccc([N+](=O)[O-])c2)c1", "Potency": "inconclusive: 14.1 µM [quencher, side channel, partial curve]"},
      {"compound": "CC(C)CNC(=O)c1cccc(NC(=O)COc2cccc([N+](=O)[O-])c2)c1", "Potency": "inconclusive: 28.2 µM [quencher, side channel, partial curve]"},
      {"compound": "Cc1noc(/C=C/Nc2ccc(F)cc2F)c1[N+](=O)[O-]", "Potency": "inconclusive: 3.55 µM [quencher, full curve]"},
      {"compound": "COc1cnc(SC(C)C)[nH]c1=O", "Potency": "inconclusive: 100 µM [inhibitor, single point]"},
      {"compound": "Oc1oc(-c2ccccc2)nc1/C=N/c1nccs1", "Potency": "inconclusive: 0.112 µM [fluorescent, side channel, full curve]"},
      {"compound": "COc1cccc(N(CC(=O)NC(C)c2ccccc2)S(C)(=O)=O)c1", "note": "(configuration not stated)", "Potency": "inactive"},
      {"compound": "Cc1c(C=O)c2ccccn2c1C(=O)c1ccncc1", "Potency": "inconclusive: 15.8 µM [quencher, partial curve]"},
      {"compound": "Cc1ccc(CNC(=O)c2cc(=O)c3ccccc3o2)cc1", "Potency": "inconclusive: 14.1 µM [quencher, side channel, partial curve]"}
    ]}
  ]
}
